# According to the supplement of paper PMC11417369:
# ± gives the standard deviation of the averaged measurements. This is one part of the list.
# System: PfAP2-I AP2 domain 3 (GST-tagged)
# Assay: gcPBM binding intensity (ln(normalized median fluorescence intensity)); higher = stronger DNA binding
# Outline: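 An Agilent 4 × 180k array of primer-extended double-stranded 36-bp intergenic genomic probes, with negative controls, was incubated for 1 h with GST-tagged P. falciparum DNA-binding domains expressed in E. coli. Alexa488 anti-GST antibody detected bound protein, scanned at 488 nm. Binding intensity is the highest Masliner-normalised natural-log median intensity across replicate spots of either probe orientation.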
row,Sequence,gcPBM binding intensity (ln)
1,AACATAAAAAAAATATGTACATATATAATATATATA [XGTACX_site3764],8.38 ± 0.43
2,TAATTTTTCTTTTATTAACACACATATAAATAAATA [CACACA_site8935],7.91 ± 0.47
3,AAAAATAAAAAAAGCACACACATATAAATAAATATA [CACACA_site6968],7.75 ± 0.43
4,TATATGACAAGATAAAGTACAAATTTGTATATATAT [XGTACX_site3027],8.54 ± 0.69
5,ATATATTTATATATTACACACAATATTGTAGACATA [CACACA_site4669],7.8 ± 0.41
6,CCCAATAATTAAACAACACACATATTTATAGGTAAT [CACACA_site7445],7.76 ± 0.85
7,ATATATATACTGTGTACACAAATATATATTATATAT [CACACA_site6104],8.61 ± 0.52
8,GATAATTTATTTTTTCGTACACAAAATATAATATAT [XGTACX_site1470],7.99 ± 0.32
9,TATATATCAAGACACACACACATATATTTATTTATA [CACACA_site7733],7.92 ± 0.51
10,TTTTTTAAAGATTACTCAAAAAAATAAAAAAATAAA [GTGCAC_negctrl_site222],7.46 ± 0.45
11,TCGTGAGAAAATATTACACACATTTACTATAGTATC [CACACA_site3444],7.62 ± 0.53
12,TGAGTTCAACAAAGACGTACAAAACCAAAAATATAA [XGTACX_site8931],7.92 ± 0.64
13,TTTTTTTTTTTTTTTTGATACATTAACCTACAATGG [GTGCAC_negctrl_site625],8.02 ± 0.35
14,ATTATAAACCATAATTAACACACAAAATAAGTTACA [CACACA_site9057],7.74 ± 0.56
15,AAAAAAAAAGAAAAATGTACATACATAAATATATAT [XGTACX_site5664],7.77 ± 0.68
16,AAAAAAAAAAAAAAAAGTACACAAATAGATTTATAT [XGTACX_site3727],8.58 ± 0.26
17,ATTCTATTTTTTATAAAACCATGTCATCAACATAGG [CACACA_negctrl_site237],7.64 ± 0.52
18,TCCTTTCAACCATATATAATGACATGTACTCAAAAA [GTGCAC_negctrl_site417],8.08 ± 0.34
19,CATCCATATAAAATATGTACATATATATATATATAT [XGTACX_site5859],9.23 ± 0.35
20,TATTTTAGTAAAGGTGGTACTTTTAAGTTCATGTAT [XGTACX_site1854],8.02 ± 0.5
21,AATATGAATATCTATACACACACATATATATACACA [CACACA_site8459],7.79 ± 0.5
22,ATTTGTGACCACACAAATAAATAAATAAAAAAAAAA [TGCATGCA_negctrl_site328],8.03 ± 0.35

row,Sequence,gcPBM binding intensity (ln)
1,ATATATTTATATTTGTGTACATATTTATTATATTTA [XGTACX_site404],7.79 ± 0.61
2,TAATAATAGAAACACACACACATTTTTAATAATACA [CACACA_site1216],7.81 ± 0.54
3,AAGAAGAAAAACCATTGTACGAACTAACATATATAA [XGTACX_site3226],7.82 ± 0.67
4,GGTATACATAATACTTGTACTAGGCAACAATAAGAT [XGTACX_site1437],8.1 ± 0.64
5,TGTTAAAAGAAAAAAAGTACAAAAAATTATACATTT [XGTACX_site467],7.76 ± 0.36
6,TATATTTTATATTAGTGTACAAATTTCATTTTTCAT [XGTACX_site2204],7.57 ± 0.46
7,AATATATATAAAAAAGTGCATTAGGATAACCATATA [GTGCAC_site9590],11.2 ± 0.57
8,TATATATATATATTCACACATATAGTATTGTATTTA [CACACA_site5147],9.22 ± 0.31
9,AAATTTGGATGACTCAATAAATTATAATATATATAT [CACACA_negctrl_site298],8.895 ± 0.035
10,ATATTCTTTATATGCATACACACCTAATATAGGGAC [CACACA_site1533],8.16 ± 0.61
11,AATCATTTGTTATAAGTCTAAAATTATTAGAATATT [XGTACX_negctrl_site151],7.33 ± 0.7
12,TTCAATTTTTTAAAGCGTACATATAAAAGTTATATG [XGTACX_site731],7.86 ± 0.18
13,ATTATTACATATAATGCATGTGCATATATTTTTATA [TGCATGCA_site701],9.57 ± 0.43
14,TTTTTTTAAATATATAAGATAAATTTATAAATAAAT [XGTACX_negctrl_site282],7.16 ± 0.44
15,AAAAAAAATTTCTCAAGTACACAATTTTTTTTTGTT [XGTACX_site5874],7.73 ± 0.58
16,TTTTATCATCACATTTGTCAAAAAAAAAAAAAAAAA [CACACA_negctrl_site1296],8.23 ± 1.1
17,TTATAATAAAAAAATTCCTAAGTCCGTATATATTAT [CACACA_negctrl_site1698],7.37 ± 0.45
18,TTTTATTTTTATAACAGTACATAAGTAATTGTTCAA [XGTACX_site7574],7.63 ± 0.58
19,TTATGTTCATTATATGCACACATATATATAAATGTA [CACACA_site8947],9.11 ± 0.071
20,GATTTTATAATTTCTACACACATATAAGAATATTCA [CACACA_site2802],7.68 ± 0.84
21,ATATCAAACTAGAATGTGCGCATGCATTCAAGTTTT,7.93 ± 0.88
22,ATATTTTCCCTTTATAGGAGCACAAAAATTAAATGT [CACACA_negctrl_site1114],8.18 ± 0.39

row,Sequence,gcPBM binding intensity (ln)
1,CAGATAAGATTTTGTGGTACTATTTATTAAATTAGA [XGTACX_site2644],7.55 ± 0.3
2,GCTAATAATAAAAGCATAATGAACAAACACCCAGTA [CACACA_negctrl_site806],8.28 ± 0.46
3,TTATATAACACGGGGAGGACACAAGAAATAAAGAGC [XGTACX_site2148],9.02 ± 0.23
4,TTTTTCTGTTTTTATAGCCTTCTCATAATACATAAA [TGCATGCA_negctrl_site355],7.9 ± 0.71
5,ATTCGGATCTATAAGTGTACACAATCTAGCGAAAAG [XGTACX_site3088],7.95 ± 0.57
6,TATACGCAGAAACACACACACAAAAAAAAAAAAAAA [CACACA_site427],8.12 ± 0.66
7,TATAATAAATCGAACTGTACATATATATATATATAT [XGTACX_site7097],9.3 ± 0.49
8,ATTTTTTTTGCTAAGTGTACACAAATGTTTATTAAT [XGTACX_site7440],8.48 ± 0.34
9,TTTATTCAAATATAATGTACTTTCTACAAATTCAAT [XGTACX_site8119],7.65 ± 0.41
10,CATATATAAATATATACACACATATATATATATATA [CACACA_site1365],9.26 ± 0.48
11,AATATGTAAATATGGGTGCTTTAAAATATATTCATT [GTGCAC_site9583],11.1 ± 0.66
12,TTCCAATGATAAAATTGTACTTGAAGAAAATTTTTT [XGTACX_site4607],7.36 ± 0.57
13,ATATATATATGGAAGTGTACTTATATAGCATACTAG [XGTACX_site5130],9.035 ± 0.078
14,TACGTATCATAATTTTATTTTATATATATTCACAAA [XGTACX_negctrl_site144],7.62 ± 0.58
15,AGCGTATAACATATGACACACACACCGACATACACA [CACACA_site8532],8.07 ± 0.54
16,AAATTTTTATAATTATCACACATTGAATTGTGGTCT [CACACA_site4343],7.65 ± 0.79
17,ATTCACAAATATATGGTGCATAATATATATATATAT [GTGCAC_site9674],11.31 ± 0.078
18,AACAATTATTGTAATGCATGCACTGAATATAGAAAG [TGCATGCA_site889],9.45 ± 0.67
19,CTATTTAAAATATGAACACACATTATTTGTTTTAGA [CACACA_site2713],7.42 ± 0.43
20,AATATAGGAATATGCACACATATATACCTACATACA [CACACA_site4939],9.03 ± 0.028
21,AAAAAAAAAAATACTAGTACGTAAAATTATATAAAT [XGTACX_site3019],7.74 ± 0.67
22,ATATCATTATATAGTTGTACATATTTATTTATTTAT [XGTACX_site8995],7.88 ± 0.31

row,Sequence,gcPBM binding intensity (ln)
1,GATATGTGTATAATATGTACATATATATATATATAT [XGTACX_site6531],9.46 ± 0.49
2,ATTTCCCATACACGTTGTACAATGTAGAGAAAGTAT [XGTACX_site4586],7.9 ± 0.47
3,AAAGAAAGAAAACACACACACATATATATATATCAA [CACACA_site3743],7.75 ± 0.45
4,TTTTTGTCTGCATACGCACACACGTGGACCATCTTA [CACACA_site8303],8.81 ± 0.71
5,TATATATATATATGTACACACACACCGATAAATAAA [CACACA_site8041],9.52 ± 0.13
6,CTTTATTATAAGATTACACACATGTGTTCTAATTTA [CACACA_site7479],7.75 ± 0.53
7,TATAAACAAAACAAAACATGCATAATACTATAAATT [TGCATGCA_site333],7.81 ± 0.85
8,TAATTAACTTTATATGCATGTTAAAAATGTTATAAG [TGCATGCA_site761],7.71 ± 0.35
9,TTTATTAAGAAACACACACACACACCCAAAATAAAA [CACACA_site242],8.4 ± 0.18
10,AACAAAATAAAAAGTAATCTTATTTATTAAAATTTT [CACACA_negctrl_site419],7.25 ± 0.43
11,TTTTGGTTAATTCCCCCCATTACATTATGTCATGTC [CACACA_negctrl_site229],9.77 ± 0.3
12,TTTCATTTTTTTACATGTACGCAAAAGTGTGTAGTT [XGTACX_site6582],8.23 ± 0.3
13,GTAAATATTCATATATGTACTTATGATATTTGCTAA [XGTACX_site6828],7.59 ± 0.3
14,TAATACTTATATAAAGGTACACAATTTAACCGAATG [XGTACX_site7173],7.74 ± 0.59
15,ACATATATATATATATATTGATTTATTTATTTCCCT [CACACA_negctrl_site659],7.96 ± 0.43
16,ATATATATATATAAATGTACAAAAATATATATGTAA [XGTACX_site4531],9.35 ± 0.15
17,CTTCCTTAGGAATGTACACACATATAAAATATGTTG [CACACA_site6355],7.83 ± 0.3
18,AAGAAAGAGTTCTGTTGTACAAAATATTAATATGTA [XGTACX_site7213],7.79 ± 0.4
19,AATACTCAAAAGAATCGTACAAACAACACTCCCACG [XGTACX_site7564],8.19 ± 0.15
20,TTACATGTAAAAGGTACACACATTAGATATACAAAT [CACACA_site6651],7.95 ± 0.68
21,TATCATACCTTTTAATGTACACACATTTCTTTTTTG [XGTACX_site1655],8.04 ± 0.64
